± gives the standard deviation of the averaged measurements. This is one part of the list.
What follows are sequences tested on PfAP2-G AP2 domain (GST-tagged) (assay: gcPBM binding intensity (ln(normalized median fluorescence intensity)); higher = stronger DNA binding).
Method in brief: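 DNA-binding domains from P. falciparum, fused to GST and produced in E. coli, were put on an Agilent 4 × 180k double-stranded probe array for 1 h in 1× PBS holding 1% milk, 0.2 mg/ml BSA, 0.5% salmon testes DNA and 0.03% Triton X-100. Probes were primer-extended, 36 bp long and drawn from intergenic genomic regions, with negative controls included. After Alexa488 anti-GST antibody detection and a 488 nm scan, binding intensity was set as the highest Masliner-normalised natural-log median intensity across replicate spots of either probe orientation.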

| Sequence | gcPBM binding intensity (ln) |
| --- | --- |
| ATTTTTATATATATCTGTACTAAAAAAAAAAAAAAA [XGTACX_site5258] | 11.1 ± 0.98 |
| TTTAATTATTTATTTTGTACATATATTATATATATA [XGTACX_site5760] | 10.7 ± 0.4 |
| AAAAGAAAAATATTCACACATATAAATAATATATAA [CACACA_site4201] | 9.615 ± 0.035 |
| AAACAAAAAAGAAAAACAATGAGATAAAGAAGAGAA [CACACA_negctrl_site804] | 9.77 ± 0.16 |
| TATTTATATATTTGTTGTACGTATTTATATATTCTT [XGTACX_site3622] | 11.6 ± 0.95 |
| TTATATTAATATTATATTTAAAAATAAAATATAAAT [TGCATGCA_negctrl_site79] | 9.54 ± 0.23 |
| TCTTGTTCGCCCTATTGTACAAACATATATTGTGAT [XGTACX_site2884] | 10.9 ± 0.45 |
| TTATTTTGATCTGGTTGTACATATAATATATAGTGG [XGTACX_site357] | 11.2 ± 0.76 |
| ACCATATAAAGTTAGGTGCATTTGTATGTATCTTAC | 9.88 ± 0.099 |
| TTTTATTTTTGTTGGTCCCTCATTTAAGTTAATAAA [TGCATGCA_negctrl_site465] | 11.1 ± 0.71 |
| TTTTCAATATATATATGCTGAATTTATAATTTGTAT [CACACA_negctrl_site1774] | 9.52 ± 0.16 |
| ATATTGATTTGTGGCACACATATAATATATTCCTAT [CACACA_site3046] | 10.2 ± 0.27 |
| TGAATAATAAAAAATACACACACATATATATATATT [CACACA_site9146] | 9.8 ± 0.11 |
| ATTAATTTGATTTTAATAAGAATATTTGTGGGGAAT [GTGCAC_negctrl_site198] | 9.82 ± 0.085 |
| ATTTTTTTTGTTTATTCTTATGTGGTTATTAAATTA [CACACA_negctrl_site1000] | 10.1 ± 0.17 |
| ATTATGAAATATCGTGCACACACGAATAATATAAGA [CACACA_site1294] | 10.3 ± 0.39 |
| TATTTGTTTAAATTCACACACGTATATATATTTATA [CACACA_site5651] | 10.2 ± 0.21 |
| TACGTTTTAAAACACACACACAAAAAAAAAAAAAAA [CACACA_site3876] | 9.97 ± 0.64 |
| ATATATACATACATATGTACATATGTAGATATATTT [XGTACX_site1230] | 10.9 ± 0.41 |
| AAAAGAGAAATGGGCACACACACACCCATTATATAT [CACACA_site1530] | 10.6 ± 0.33 |
| AAATATTACATACACGCACACATTAAAATATTTAAA [CACACA_site5440] | 10.4 ± 0.18 |
| ATCTAATAAAAATACACACACATATGGTTTGTGAAT [CACACA_site6962] | 9.775 ± 0.078 |

| Sequence | gcPBM binding intensity (ln) |
| --- | --- |
| ATGTACCTTCAAACTACACACAAATGAAGGAACACA [CACACA_site3330] | 11.1 ± 0.86 |
| GCGTATCATTTTAAAACACACAGGATTTTATAAGTA [CACACA_site1225] | 10.18 ± 0.085 |
| ATGGTATAAAAAAATACACACTTATTTATATTCTTA [CACACA_site6370] | 9.895 ± 0.049 |
| ATATAGAATGTTTACACACGCAATAAATATATATAT [CACACA_site217] | 10.1 ± 0.14 |
| TGTAGTCTGGAGAAGAGTACACAGTATCTGGTAGCT [XGTACX_site2036] | 11.5 ± 0.84 |
| TTAAAAAATCACAACACACACACACGCAAAAAAAAA [CACACA_site6793] | 10.4 ± 0.38 |
| AAAAATAACATATAAACACACATATAGATTTATATA [CACACA_site7738] | 9.735 ± 0.078 |
| CTTTTTATTTATCATACACACACAGAAAAAAAAAAA [CACACA_site7935] | 10.2 ± 0.35 |
| ATATACAAAGGATTAACACACATATTATTATAGATA [CACACA_site6966] | 9.86 ± 0.13 |
| AAATAAATAAATAGAGTGCATATATATATATATTTT | 9.99 ± 0.25 |
| AAAAAAAATAAAAATATATATATATATATATAAATA [GTGCAC_negctrl_site676] | 9.45 ± 0.085 |
| AAGCATTTTTTTTAAAGCCTGTTCATCATCCTTACC [CACACA_negctrl_site129] | 10.1 ± 0.28 |
| AATTTTTAGAAGAACACACACATATATATTATGACC [CACACA_site246] | 10.3 ± 0.25 |
| ATTATGCACAGACACACACACACACTACTAAAAAAT [CACACA_site7252] | 10.5 ± 0.49 |
| ATAGGAGAAAAAGAATGTACGTATGATGTTGAAAAT [XGTACX_site7779] | 11.4 ± 0.64 |
| TCCTTTTTTTTTTATGCACACACAATTATACATTCC [CACACA_site9287] | 10.3 ± 0.26 |
| ATAATATTTTTATGTACACACCTTAATCCTTAAAAG [CACACA_site5881] | 11.5 ± 0.82 |
| TTAACCACTAAAAGTACACACATATATACATATATA [CACACA_site3912] | 11.4 ± 0.92 |
| ACCGTGGGAGGACACACACACACACGCACATATATA [CACACA_site6289] | 11.5 ± 0.9 |
| AAATAACTTTTAAATACACACGTAAAATATATTGTG [CACACA_site9085] | 10.39 ± 0.099 |
| TACATTATAAATATTACACACTTTATAAAATAATAA [CACACA_site6096] | 9.89 ± 0.22 |
| TCTATTAATTAATATACACACATTATATATATATAT [CACACA_site8815] | 10 ± 0.13 |

| Sequence | gcPBM binding intensity (ln) |
| --- | --- |
| AATATATATATATATATATTTTTGTTAGAATATGGA [CACACA_negctrl_site212] | 9.61 ± 0.014 |
| TCCTTAAATATAAAGGTGCTATGCAGACCTTATGTT [GTGCAC_site9472] | 9.93 ± 0.15 |
| AAAAAAAAAAAAAACACACACACACGCAAATACATA [CACACA_site6474] | 10.2 ± 0.15 |
| TTCCTATAAAAAAACACACACATATAAATATAAATA [CACACA_site7154] | 10.01 ± 0.049 |
| ATATAAGTACGGCATGCATGCACATTTTTTTATTCC [TGCATGCA_site101] | 10.9 ± 0.5 |
| TTATAAATTCAATGTACTACACAAAATGAATTTAAT [XGTACX_site6683] | 11.4 ± 0.82 |
| TACAGACATAGACACACACACACGCATAAAAAAAAA [CACACA_site6820] | 10.4 ± 0.48 |
| TACATAAACATTTATACACACATTATATATACATAT [CACACA_site8028] | 10.12 ± 0.064 |
| TGTGCTCGCTATTACACACTCATTGGGATAAAATTG [CACACA_site2029] | 10.2 ± 0.14 |
| TTTCTTTTAATTATCCGTACACAAACAATAAAATAA [XGTACX_site7841] | 11.4 ± 0.93 |
| AAAATAATATATGTATGTACACAATTATTTATAAGT [XGTACX_site7267] | 11.5 ± 0.89 |
| TGAATAAATAAGATACGTACACACATATACAAAATA [XGTACX_site7758] | 11.5 ± 0.83 |
| TGGCTTATTCAGAAATGTACACATATAAATATATAT [XGTACX_site3765] | 11.2 ± 0.76 |
| TTACAAAACCGATGTTGTACATTCAATAGATAATGT [XGTACX_site3806] | 11 ± 0.56 |
| ATAACGTAAACAATGTGGACACATACATAAATATAT [XGTACX_site707] | 11.5 ± 0.88 |
| TTTATTAAATAAAGCACACACAACAACTTTTCACAA [CACACA_site4132] | 10.3 ± 0.24 |
| GATAACAATATGTGTACACATTTATATCTCCACATA [CACACA_site5442] | 11.7 ± 0.83 |
| AATGTATAAAAGTTTTGTACATATTCTCACACATAT [XGTACX_site965] | 10.8 ± 0.51 |
| ATATACCATATGCATGGTACACATTTACAACAAAAA [XGTACX_site3142] | 11 ± 0.52 |
| TAGTTGTGAGTTACATGTACATGTATTTATTTTTTA [XGTACX_site7088] | 11.3 ± 0.81 |
| TATATATATATATATACATGCATTTCTCATGTACAT [TGCATGCA_site621] | 10.8 ± 0.73 |
| TATAACAAGTAATGGTGTACATTATATTATGTAATA [XGTACX_site2761] | 11.4 ± 0.93 |

| Sequence | gcPBM binding intensity (ln) |
| --- | --- |
| CATATGCGTCTTGCCTTGCACACTTTTATGAAAAAA [CACACA_site2055] | 10.4 ± 0.26 |
| TAATACTTAAAATGTTGTACATAATAATTTTATATT [XGTACX_site5403] | 11.4 ± 0.7 |
| TATAAAAATAAGTATACACACAAAATGCGTAACTTT [CACACA_site1295] | 10.2 ± 0.26 |
| TACATTAAACGAATAGTGCAAGAAGTATTCGTATAA [GTGCAC_site9939] | 10.4 ± 0.16 |
| ATAAATACATTAAAATGTACATAAAAATATTACTGG [XGTACX_site1484] | 11.2 ± 0.67 |
| GTCATCATAATCTATTGTACAAAAATTTATACAGAT [XGTACX_site1059] | 10.9 ± 0.57 |
| AATATTATAAATGATACACACTTAAAATACAGACAC [CACACA_site8868] | 10.5 ± 0.31 |
| AATTACTTAAATTATTGTACCCTAATGTTAATTTCA [XGTACX_site825] | 11.2 ± 0.62 |
| TTATGTAGTATAATGAGTACTAAATATAGATATGTT [XGTACX_site6335] | 11 ± 0.64 |
| TTAATTTTGGTAAATGCATGTAATTAAAAATAAAAA [TGCATGCA_site234] | 10.1 ± 0.27 |
| ATATTGAAATTAAAAAAATATATGAACAAATGATGA [CACACA_negctrl_site602] | 9.975 ± 0.064 |
| TAAATTTTTTTTTTTTGTACACAAAAATATAATATT [XGTACX_site8151] | 11.4 ± 0.98 |
| TTTTATATCTACCTTTGTACATATTTATTTTTTTTA [XGTACX_site7872] | 11 ± 0.53 |
| TTCATAAAAAATGTAGTGCATTGAATAAAATTACAT [GTGCAC_site9393] | 10.1 ± 0.18 |
| TTTATAAAAAGCATAACACACACATGTCAATATATA [CACACA_site8286] | 10.12 ± 0.035 |
| AACATACGACAATACGCACACATATAAGTACATATT [CACACA_site8584] | 11.5 ± 0.84 |
| TATTTTGAAATGGAAAGGATATAGAACTTAAACAAA [CACACA_negctrl_site1530] | 9.87 ± 0.042 |
| TTTCTTTAGTAGAATGTAAAAAATATAATCTTCTTA [TGCATGCA_negctrl_site298] | 9.505 ± 0.064 |
| ATACATTCAAAATATACACACATATATCTATAATAT [CACACA_site6576] | 9.92 ± 0.028 |
| ATTTAATTTTTTTTTAAACACACATTTTTTTATTTA [CACACA_site8880] | 9.84 ± 0.099 |
| GCTTATGCTCAATATTGTACTTTTTTTATTTATTCA [XGTACX_site8863] | 11.3 ± 0.84 |
| TACTTCTTTTTTATTTATTTTACTTTTTATTCTGTA [CACACA_negctrl_site772] | 9.82 ± 0.15 |
